From US20150266977A1 (AbbVie / Abbott, published 2015)

B1: DVD2648 (bispecific antibody, human IgG1, lambda)
heavy: EVQLVESGGGLVQPGGSLRLSCAASGFTFSNYGVEWVRQAPGKGLEWVSGIWADGSTHYADTVKSRFTISRDNSKNTLYLQMNSLRAEDTAVYYCAREWQHGPVAYWGQGTLVTVSSASTKGPEVQLVESGGGLVQPGRSLRLSCAASGFTFDDYALHWVRQAPGKGLEWVSGIGWDEDMIDYADSVKGRFTISRDNAKNSLYLQMNSLRVEDTALYYCAGNNRGYGGLDVWGQGTTVTVSSASTKGPSVFPLAPSSKSTSGGTAALGCLVKDYFPEPVTVSWNSGALTSGVHTFPAVLQSSGLYSLSSVVTVPSSSLGTQTYICNVNHKPSNTKVDKKV[left out - human IgG1 Fc with changes]
light: DIQMTQSPSSLSASVGDRVTITCKASQLVSSAVAWYQQKPGKAPKLLIYWASTLHTGVPSRFSGSGSGTDFTLTISSLQPEDFATYYCQQHYRTPFTFGQGTKLEIKRTVAAPQSVLTQPPSASGTPGQRVTISCSGSWSNIGSNTVNWYQQLPGTAPKLLIYNNNQRPSGVPDRFSGSKSGTSASLAISGLQSEDEADYYCAAWDDSLSGEYVFGGGTKLTVLGQPKAAPSVTLFPPSSEELQANKATLVCLISDFYPGAVTVAWKADSSPVKAGVETTTPSKQSNNKYAASSYLSLTPEQWKSHRSYSCQVTHEGSTVEKTVAPTECS
notes: DVD-Ig: outer AB437, inner MSL10-AM3.2
B2: DVD2646 (bispecific antibody, human IgG1, lambda)
heavy: EVQLVESGGGLVQPGGSLRLSCAASGFTFSNYGVEWVRQAPGKGLEWVSGIWADGSTHYADTVKSRFTISRDNSKNTLYLQMNSLRAEDTAVYYCAREWQHGPVAYWGQGTLVTVSSASTKGPSVFPLAPEVQLVESGGGLVQPGRSLRLSCAASGFTFDDYALHWVRQAPGKGLEWVSGIGWEDDMIDYADSVKGRFTISRDNAKNSLYLQMNSLRVEDTALYYCAGNSRGYGGLDVWGQGTTVTVSSASTKGPSVFPLAPSSKSTSGGTAALGCLVKDYFPEPVTVSWNSGALTSGVHTFPAVLQSSGLYSLSSVVTVPSSSLGTQTYICNVNHKPSNTKVDKKV[left out - human IgG1 Fc with changes]
light: B1 light with W139S, S144G, N164S, S210E, E212S
notes: DVD-Ig: outer AB437, inner MSL10-AM2.2
B3: DVD2628 (bispecific antibody, human IgG1, lambda)
heavy: EVQLVESGGGLVQPGGSLRLSCAASGFTFSNYGVTWVRQAPGKGLEWVSMIWADGSTHYASSVKGRFTISRDNSKNTLYLQMNSLRAEDTAVYYCAREWQHGPVAYWGQGTLVTVSSASTKGPEVQLVESGGGLVQPGRSLRLSCAASGFTFDDYALHWVRQAPGKGLEWVSGIGWDEDMIDYADSVKGRFTISRDNAKNSLYLQMNSLRVEDTALYYCAGNNRGYGGLDVWGQGTTVTVSSASTKGPSVFPLAPSSKSTSGGTAALGCLVKDYFPEPVTVSWNSGALTSGVHTFPAVLQSSGLYSLSSVVTVPSSSLGTQTYICNVNHKPSNTKVDKKV[left out - human IgG1 Fc with changes]
light: B1 light with K24R, T53A, L54R, R93K
notes: DVD-Ig: outer AB436, inner MSL10-AM3.2
B4: DVD2651 (bispecific antibody, human IgG1, lambda)
heavy: EVQLVESGGGLVQPGGSLRLSCAASGFTFSNYGVEWVRQAPGKGLEWVSGIWADGSTHYADTVKSRFTISRDNSKNTLYLQMNSLRAEDTAVYYCAREWQHGPVAYWGQGTLVTVSSASTKGPSVFPLAPEVQLVESGGGLVQPGRSLRLSCAASGFTFDDYALHWVRQAPGKGLEWVSGIGWDEDMIDYADSVKGRFTISRDNAKNSLYLQMNSLRVEDTALYYCAGNNRGYGGLDVWGQGTTVTVSSASTKGPSVFPLAPSSKSTSGGTAALGCLVKDYFPEPVTVSWNSGALTSGVHTFPAVLQSSGLYSLSSVVTVPSSSLGTQTYICNVNHKPSNTKVDKKV[left out - human IgG1 Fc with changes]
light: B1 light
notes: as for B1
B5: DVD2631 (bispecific antibody, human IgG1, lambda)
heavy: EVQLVESGGGLVQPGGSLRLSCAASGFTFSNYGVTWVRQAPGKGLEWVSMIWADGSTHYASSVKGRFTISRDNSKNTLYLQMNSLRAEDTAVYYCAREWQHGPVAYWGQGTLVTVSSASTKGPSVFPLAPEVQLVESGGGLVQPGRSLRLSCAASGFTFDDYALHWVRQAPGKGLEWVSGIGWDEDMIDYADSVKGRFTISRDNAKNSLYLQMNSLRVEDTALYYCAGNNRGYGGLDVWGQGTTVTVSSASTKGPSVFPLAPSSKSTSGGTAALGCLVKDYFPEPVTVSWNSGALTSGVHTFPAVLQSSGLYSLSSVVTVPSSSLGTQTYICNVNHKPSNTKVDKKV[left out - human IgG1 Fc with changes]
light: B1 light with K24R, T53A, L54R, R93K
notes: as for B3

molecular target: T1, recombinant human sclerostin (human, UniProt Q9BQB4 24-213); assay: SPR
T1 construct: biotinylated in the ELISAs; also called hu sclerostin; hu scl
T1 sequence: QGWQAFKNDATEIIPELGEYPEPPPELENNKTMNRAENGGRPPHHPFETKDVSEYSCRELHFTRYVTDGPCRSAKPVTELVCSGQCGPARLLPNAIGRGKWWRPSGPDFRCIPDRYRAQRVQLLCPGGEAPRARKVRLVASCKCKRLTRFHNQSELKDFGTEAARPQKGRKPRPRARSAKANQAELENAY
Experimental: (§1) The binding of antibodies or anti-sclerostin-TNF DVD to purified recombinant human, cynomolgus monkey (cyno), rat and mouse sclerostin and TNFα was determined by surface plasmon resonance-based measurements with a Biacore T100 or T200 instruments (GE Healthcare Life Sciences, Piscataway, N.J., USA) using running HBS-EP+ (10 mM HEPES [pH 7.4], 150 mM NaCl, 3 mM EDTA, and 0.005% surfactant P20) containing additional 150 mM NaCl, and/or 10 mg/ml carboxymethyl dextran, 0.1 mg/ml BSA at 25° C. All chemicals were obtained from GE Healthcare Life Sciences, Piscataway, N.J., USA or otherwise from a different source as described in the text. Approximately 10,000 RU (or 3000 RU when CM3 chip was used) of goat anti-mouse or anti-human IgG (Fcγ) fragment specific polyclonal antibody (Pierce Biotechnology Inc, Rockford, Ill.) diluted in 10 mM sodium acetate (pH 4.5) was directly immobilized across a CM5 (or CM3) research grade biosensor chip using a standard amine coupling kit according to manufacturer's instructions and procedures at 15 μg/ml. Unreacted moieties on the biosensor surface were blocked with ethanolamine. Modified carboxymethyl dextran surface in flowcells 2, 3 and 4 were used as a reaction surface. Modified carboxymethyl dextran in flow cell 1 was used as the reference surface. Biaevaluation T100 software version 2.0.2, GE Healthcare Life Sciences was used to simultaneously fit association and dissociation phases of all injections (using 1:1 fit analysis with local Rmax). Purified antibodies were diluted in running buffer for capture across goat anti-mouse or anti-human IgG specific reaction surfaces. Antibodies to be captured as a ligand (1 μg/ml) were injected over reaction matrices at a flow rate of 10 μl/minute. The association and dissociation rate constants, kon (unit M-1 s-1) and koff (unit s-1) were determined under a continuous flow rate of 50 μl/minute. […] At the end of each cycle the surfaces were regenerated with 10 s injection of 50 mM NaOH or/and by 10 s injection of 10 mM Glycine pH1.5 at a flow rate of 100 μl/min.

First: B1
Second: B2
The Kd of the first is 3.6-fold higher: 4 nM for the first, 1.1 nM for the second.

First: B3
Second: B4
The Kd of the first is 1.8-fold lower: 1.5 nM for the first, 2.7 nM for the second. The first binds more tightly here.

For B5, the Kd was 1.8 nM.

Going from B1 to B2, the koff falls from 0.00033 s⁻¹ to 0.00012 s⁻¹ (2.8-fold).

B3 and B4 are within 1.5-fold of each other in koff: 9.3e-05 s⁻¹ for the first, 0.00012 s⁻¹ for the second.

Binder B5 has a koff of 0.00014 s⁻¹.

B1 and B2 are within 1.5-fold of each other in kon: 83000 M⁻¹ s⁻¹ for the first, 110000 M⁻¹ s⁻¹ for the second.

B3 and B4 are within 1.5-fold of each other in kon: 64000 M⁻¹ s⁻¹ for the first, 43000 M⁻¹ s⁻¹ for the second.

B5 showed a kon of 79000 M⁻¹ s⁻¹.

molecular target: T2, recombinant cynomolgus monkey sclerostin (cynomolgus monkey); assay: SPR
T2 construct: also called cyno sclerostin; Cyno sclerostin
Experimental: as §1

Compared with B1, B2 is 4.5-fold lower in Kd: 1.3 nM for the first, 0.29 nM for the second. The second binds more tightly here.

B3 and B4 are within 1.5-fold of each other in Kd: 3.1 nM for the first, 2.6 nM for the second.

Binder B5 has a Kd of 2.3 nM.

Going from B1 to B2, the koff falls from 0.00012 s⁻¹ to 6.6e-05 s⁻¹ (1.8-fold).

B3 and B4 are within 1.5-fold of each other in koff: 0.00028 s⁻¹ for the first, 0.0002 s⁻¹ for the second.

B5 gave a koff of 0.00024 s⁻¹.

Compared with B1, B2 is 2.5-fold higher in kon: 93000 M⁻¹ s⁻¹ for the first, 230000 M⁻¹ s⁻¹ for the second.

B3 and B4 are within 1.5-fold of each other in kon: 90000 M⁻¹ s⁻¹ for the first, 78000 M⁻¹ s⁻¹ for the second.

B5 gave a kon of 110000 M⁻¹ s⁻¹.

Changes are numbered by the printed parent chain.
